# Measurements from publication PMC6919601, “Identification of Plasmodium dipeptidyl aminopeptidase allosteric inhibitors by high throughput screening” (PLoS ONE, 2019).
# Out of some 110,000 compounds screened, about 230 (0.21%) showed an effect of 50% or more. Some of the results follow.
# Target: DPAP1 (Plasmodium falciparum, UniProt Q8IIJ9)
# Assay: primary screen, percent inhibition; read by cleavage of a fluorogenic dipeptide substrate; higher = more effect of the substance
# Design: species or system P. falciparum D10 trophozoite lysates; single well
# 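Note: 30 min substrate incubation versus DMSO and 10 µM JCP410 controls.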
# Chain of DPAP1 (Q8IIJ9 whole entry, looked up): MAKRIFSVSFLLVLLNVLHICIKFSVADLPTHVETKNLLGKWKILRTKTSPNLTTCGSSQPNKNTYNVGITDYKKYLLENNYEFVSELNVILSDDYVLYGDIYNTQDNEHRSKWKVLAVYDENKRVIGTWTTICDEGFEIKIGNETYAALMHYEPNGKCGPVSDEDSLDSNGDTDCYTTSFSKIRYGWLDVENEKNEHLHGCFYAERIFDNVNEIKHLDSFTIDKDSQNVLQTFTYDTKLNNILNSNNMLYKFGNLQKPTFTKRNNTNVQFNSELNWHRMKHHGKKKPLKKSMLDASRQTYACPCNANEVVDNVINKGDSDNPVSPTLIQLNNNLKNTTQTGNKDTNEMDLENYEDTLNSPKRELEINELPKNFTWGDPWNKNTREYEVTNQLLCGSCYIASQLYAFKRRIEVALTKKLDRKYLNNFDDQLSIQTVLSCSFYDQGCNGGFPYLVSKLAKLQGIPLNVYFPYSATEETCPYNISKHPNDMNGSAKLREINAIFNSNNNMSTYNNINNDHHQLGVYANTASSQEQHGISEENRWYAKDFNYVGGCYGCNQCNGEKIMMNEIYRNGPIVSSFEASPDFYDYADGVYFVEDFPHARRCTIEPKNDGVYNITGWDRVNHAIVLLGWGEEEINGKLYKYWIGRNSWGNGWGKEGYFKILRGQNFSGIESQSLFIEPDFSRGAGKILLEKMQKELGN
row,Compound,% Inhibition @ 10 uM
1,CCC(C)NC(=O)c1ccccc1NS(=O)(=O)c1ccc(OC)c(OC)c1 (stereo not shown),0.727%
2,CCN1CCC(C#N)(NC(=O)[C@H](Cc2c(F)cc(OC)cc2F)NC(=O)c2ccc(-c3cc(C(=O)O)ccc3Cl)cc2)CC1,-3.14%
3,O=C1CCc2c1[nH]c1ccc(C3CCCCC3)cc21,-2.72%
4,COc1cc(Br)cc2cc(C(=O)NCCc3c(C)[nH]c4ccc(C)cc34)c(=O)oc12,10.3%
5,CCC1CCCCN1C(=O)CSc1nnc(-c2ccc(Cl)s2)o1 (stereo not shown),1.3%
6,CCOc1ccc2nc(SCC(=O)Nc3ccccc3OC)c(C#N)cc2c1,3.05%
7,COc1cc(C(=O)O/N=C2/C=CC(=O)C(C)=C2C)cc(OC)c1OC,3.47%
8,COc1ccc(CCNc2ncnc3c2cnn3C)cc1OC,3.2%
9,CCS(=O)(=O)c1ncc(Cl)c(C(=O)Nc2sc3c(c2C#N)CCCC3)n1,-4.64%
10,CC(=O)c1nn(-c2ccc(F)cc2)nc1NC1CCc2ccccc21 (stereo not shown),-1.71%
11,Cc1c2cnn(CC(=O)N3CCC(C(N)=O)CC3)c(=O)c2c(C)n1Cc1ccc(F)cc1,-2.17%
12,CN(Cc1ccccc1)C(=O)C1CCC(CNS(=O)(=O)c2cccc3nsnc23)CC1 (stereo not shown),-0.465%
13,CCOC(=O)c1c(CN2CCN(C(=O)OCC)CC2)n(-c2ccccc2)c2ccc(O)cc12,-0.958%
14,CCN(CC)CC(=O)NC(C)(C)Cc1ccc(O)cc1,-0.473%
15,Cc1oc(-c2ccccc2F)nc1CS(=O)(=O)CC(=O)NCCCN1CCc2ccccc2C1,-1.89%
16,C(=C\c1ccccc1)/CN1CCN(C2CCC(c3ccccc3)CC2)CC1 (stereo not shown),-1.82%
17,O=C(NC1CCN(c2ncccn2)CC1)C1CC1,-2.88%
18,CCOCCCNC(=O)CN1N=C(c2ccc(OC)cc2)CCC1=O,3.24%
19,CC(=C1C(=O)c2ccccc2C1=O)N1CCC(C(N)=O)CC1,-4.68%
20,CCCCOc1ccc(C(C)NC(=O)CN2CCN(Cc3ccc(Cl)cc3)C2=O)cc1 (stereo not shown),-4.76%
21,COc1ccccc1C1C(C(=O)Nc2cccnc2)=C(C)Nc2nc(-c3cccs3)nn21 (stereo not shown),-0.123%
22,COc1ccc(/C=C(\C#N)c2nc(-c3ccc(OC)c(OC)c3)cs2)c(OC)c1,3.45%
23,Oc1cc(-c2ccccc2)nc2ncnn12,0.392%
24,COc1cc(NC(=O)c2sc3nc(-c4ccncc4)ccc3c2N)cc(OC)c1OC,-2.8%
25,COC(=O)C1=CNC=C(C(=O)OC)C1c1cccc(OCc2ccccc2)c1,1.37%

row,Compound,% Inhibition @ 10 uM
1,Cc1ccc2[nH]c3c(c2c1)CCCC3NCCO (stereo not shown),-1.04%
2,COc1ccc(-c2nn(CCC(=O)O)c3nc(C)cc(C)c23)c(OC)c1,-4.69%
3,O=C1OC(c2cccc3ccccc23)=N/C1=C/c1ccc(F)cc1,-0.1%
4,COc1ccc(-n2ncc(C(=O)Nc3cccnc3)c2C2CCN(C(=O)OC(C)(C)C)CC2)cc1,-3.65%
5,CC(CNC(=O)c1cnn(-c2ccccc2)c1-n1cccc1)c1ccccc1 (stereo not shown),3.4%
6,Cc1noc2ncnc(NCCCN3CCCC(C)C3)c12 (stereo not shown),-6.14%
7,O=S1(=O)CCC(SC2CCS(=O)(=O)C2)C1 (stereo not shown),-5.45%
8,CCc1nnc(NS(=O)(=O)c2ccc(NC(=O)c3ccccc3F)cc2)s1,7.4%
9,Cn1c(=O)c2sccc2n2c(CCCC(=O)NCc3ccc4c(c3)OCO4)nnc12,0.351%
10,Cc1ccc(CCNCc2c(C(=O)O)n(Cc3ccc(C)cc3)c3cc(C)ccc23)cc1,0.984%
11,O=C1NC(=S)NC(=O)C1=Cc1cn(Cc2ccc(Cl)cc2Cl)c2ccccc12,1.88%
12,COc1ccc(C2OCC3C(c4ccc(OC)c(OC)c4)OCC23)cc1OC (stereo not shown),3%
13,COc1ccc(-c2ccc(CO)cc2)cc1,-5.96%
14,COc1cc(CCNCc2c(C(=O)O)c(C)n(Cc3ccc(C)cc3)c2C)cc(OC)c1OC,-1.92%
15,Cc1ccc(-n2c(=O)[nH]c3ccc(Cl)cc3c2=O)cc1,-1.61%
16,CC1CCCC(NC(=O)C2CCN(C(=O)N(C)C)CC2)C1C (stereo not shown),-1.34%
17,CCCN1C(=O)CN(C2CCCCCC2)C(=O)C1c1ccc(C)cc1 (stereo not shown),-0.519%
18,Cc1c(CNCCCSC2CCCCC2)c(C(=O)O)c(C)n1Cc1ccccc1,6.02%
19,Cc1ccc(NC(=O)CN(c2cccc(Cl)c2C)S(C)(=O)=O)c(C)c1,-0.496%
20,COc1ccc(S(=O)(=O)N(CC(=O)Nc2cccc(OC)c2)c2ccccc2)cc1,3.66%
21,c1ccc(Nc2nc(-c3ccccn3)cs2)cc1,-1.37%
22,COc1cc(CN2CCN(c3ccccc3F)CC2)cc(Br)c1O,3.16%
23,CCOc1ccc(/C=C/C(O)=C2/C(=O)NC3(C)CC2c2ccccc2O3)cc1OC (stereo not shown),-3.21%
24,COc1ccc(C(=O)Sc2nc(C)cc(C)n2)cc1,54.6%
